According to PubChem BioAssay AID445 (National Center for Advancing Translational Sciences (NCATS), 2006):
Among all 110,000 compounds or so, about 40 (0.04%) were called active. The inconclusive results got no clear call from the source; some entries with a clear call stand among them for comparison. The call rests on the fitted dose curve; in most records, active means well fitted curve in the direction sought with a large enough effect in the signal ratio (not every such curve was filed as active); inconclusive means small, poorly fitted or top-dose-only effect, or a change in a side signal; inactive means flat fitted curve, though single readings scatter; the % refers to the signal ratio. Where the call is inconclusive, the potency comes from a doubtful curve fit.

assay: IkB Signaling; details: ABC-DLBCL IkBa-CBG/CBR dual luciferase ratio (green luciferase fused to IkBa over red control in OCI-Ly3 lymphoma cells), 4 h; IkBa stabilization activation: at 57.1 µM (top of the series), scaled: untreated 0%, proteasome inhibitor 100% unless noted;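 on IkBa stabilization activation: 0% = basal untreated cells and 100% = reference inhibitor full response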
How it was run: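 Luminescence ratio of IκBα-fused green versus native red beetle luciferase in OCI-Ly3 cells, 4 h post-doxycycline with compound; red signal alone, scaled from basal (0%) to zero light (-100%), flagged nonspecific or cytotoxic effects.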
Potency means the concentration at half of the fitted maximal effect.

| Structure (SMILES) | IkBa stabilization activation | Potency |
| --- | --- | --- |
| N=C(N)SCCSC(=N)N | inactive: -0.204% [at 11.4 µM, scaled: untreated 0%, proteasome inhibitor 100%] | – |
| Cc1cccc(N2CCN(c3nc4ccc(C)cc4n4cnnc34)CC2C)c1 (configuration not stated) | inconclusive: -2.15% [signal inhibitor] | – |
| O=C(NC1CCCCC1)N1CCc2ccccc21 | – | inconclusive: 15.8 µM [signal inhibitor, partial curve] |
| COc1ccc(-n2ccnc(NCc3ccc(C)cc3)c2=O)cc1OC | inactive | – |
| CCOc1ccccc1N(CC)C(=O)c1noc2c1COc1ccc(C)cc1-2 | inconclusive: 1.56% [signal inhibitor] | – |
| O=C(NC1CCCCC1)c1ccc2c(c1)N(Cc1ccc(Cl)cc1)C(=O)c1ccccc1S2=O (configuration not stated) | inconclusive: 1.5% [signal inhibitor] | – |
| O=C(c1ccc(F)cc1)n1nc(-c2ccccc2)nc1NCc1ccco1 | inconclusive: 2.6% [signal inhibitor] | – |
| CCn1cc(C(=O)NCCc2ccc(Cl)cc2)c(=O)c2cc(S(=O)(=O)N3CCC(C)CC3)ccc21 | inconclusive: 2.84% [signal inhibitor] | – |
| Cc1ccc(NC(=O)c2oc3ccc(S(=O)(=O)N4CCC5(CC4)OCCO5)cc3c2C)c(C)c1 | inconclusive: 7.19% [signal inhibitor] | – |
| O=C(Nc1ccc(S(=O)(=O)N(Cc2ccccc2)c2ccccc2)cc1)c1ccc([N+](=O)[O-])cc1 | inconclusive: -3.73% [signal inhibitor] | – |
| Cc1ccc(NC(=O)C(=O)NCCc2csc3nc(-c4ccccc4C)nn23)cc1Cl | inactive | – |
| O=C(NCc1ccccc1Cl)c1ccc(NC(=O)N2CCSc3ncccc32)cc1 | inactive | – |
| O=c1c2ccccc2sc2nc(C3CCCCC3)n(Cc3ccco3)c(=O)c12 | – | inconclusive: 20 µM [signal inhibitor, partial curve] |
| COc1ccc2c(c1)c1c(c(=O)n(Cc3ccccc3)c(=O)n1CC(=O)Nc1ccc(C)cc1C)n2C | inactive | – |
| CC(C)CCNC(=O)Nc1cc(C(=O)NCc2cccc(F)c2)ccc1N1CCCC1 | inconclusive: 2.21% [signal inhibitor] | – |
| COc1ccc2c(c1)CC(C(=O)NCCN1CCN(c3cccc(C)c3C)CC1)CO2 (configuration not stated) | inconclusive: 0.405% [signal inhibitor] | – |
| O=C(Nc1nnc(S(=O)(=O)N2CCCCCC2)s1)c1ccccc1Br | inactive | – |
| CCOC(=O)c1ccc(CN(Cc2ccc(C)cc2)S(=O)(=O)c2ccc(NC(C)=O)cc2)cc1 | inconclusive: 2.51% [signal inhibitor] | – |
| CCn1cc2nc(SCc3ccc(F)cc3)n(Cc3ccc(Cl)cc3)c(=O)c2n1 | inconclusive: -0.181% [signal inhibitor] | – |
| CC(=O)Nc1ccc(Nc2nnc(-c3ccc(C)c(S(N)(=O)=O)c3)c3ccccc23)cc1 | inconclusive: 3.48% [signal inhibitor] | – |
| C=CCn1c(-c2ccccc2)c[nH]c1=S | inconclusive: 9.97% [signal inhibitor] | – |
| CC(C)Cn1cc(C(=O)N2CCN(c3cccc(Cl)c3)CC2)c2c3ccccc3n(C)c2c1=O | inconclusive: 5.7% [signal inhibitor] | – |
| CC(=O)N1CCCc2cc(S(=O)(=O)N3CCCC(C(=O)Nc4cccc(Cl)c4C)C3)ccc21 (configuration not stated) | inconclusive: 2.46% [signal inhibitor] | – |

| Structure (SMILES) | IkBa stabilization activation | Potency |
| --- | --- | --- |
| O=C(Oc1ccc(-c2cnc3ccccc3n2)cc1)c1ccco1 | inactive | – |
| Cc1ccc(C)c(OC(=O)CSc2nnc(-c3ccc4c(c3)OCO4)o2)c1 | inconclusive: 0.487% [signal inhibitor] | – |
| CCOc1cc(C(=O)Nc2ccc(S(=O)(=O)Nc3cc(OC)nc(OC)n3)cc2)cc(OCC)c1OCC | inconclusive: 9.06% [signal inhibitor] | – |
| NS(=O)(=O)c1cc2c(cc1Cl)=NC(CCC(=O)O)=NS=2(=O)O | inactive: -0.0451% [at 11.4 µM, scaled: untreated 0%, proteasome inhibitor 100%] | – |
| COc1ccc(C/C(O)=C(\C#N)c2nc3ccccc3s2)cc1 | inconclusive: 10.9% [signal inhibitor] | – |
| O=C(CCC(=O)OCC(F)(F)C(F)F)Nc1ccc(Cl)cc1 | inactive | – |
| COc1cccc(Cn2c(=O)c(C)nc3cnc(OC)nc32)c1 | inactive: -0.191% [at 11.4 µM, scaled: untreated 0%, proteasome inhibitor 100%] | – |
| CCC1=C(c2ccc(C)cc2)S(=O)(=O)N=C1N1CCC(C(=O)NCc2ccccc2Cl)CC1 | inconclusive: -1.92% [signal inhibitor] | – |
| Cc1ccc(C)c(N2CCN(CCCNC(=O)c3nnc(Cc4ccc(F)cc4Cl)o3)CC2)c1 | inconclusive: 10.9% [signal inhibitor] | – |
| O=C(COc1ccc(C(=S)N2CCOCC2)cc1)N1CCCC1 | inactive | – |
| CCc1ccc(NC(=O)Cn2c(=O)n(CC3CCCO3)c(=O)c3cc(OC)c(OC)cc32)cc1 (configuration not stated) | inconclusive: 5.48% [signal inhibitor] | – |
| Cc1ccc(-c2cc(C(F)(F)F)c(C#N)c(SCC(=O)O)n2)cc1 | inconclusive: -1.56% [signal inhibitor] | – |
| COc1ccc(-c2nc(NC(=O)C3CCN(c4nc5ccccc5o4)CC3)sc2C)cc1 | inconclusive: 8.5% [signal inhibitor] | – |
| COc1ccc(NC(=O)Nc2ccccc2OCc2cc(=O)n3ccccc3n2)c(OC)c1 | inactive | – |
| O=C(CN1C(=O)C2CCCCN2c2ccc(C(=O)N3CCCC3)cc21)NCc1cccc(F)c1 (configuration not stated) | inconclusive: -0.657% [signal inhibitor] | – |
| Cc1ccccc1CNC(=O)C(=O)NCC(c1cccs1)S(=O)(=O)c1ccc(Cl)cc1 (configuration not stated) | inconclusive: 1.26% [signal inhibitor] | – |
| O=C(NCc1ccccc1)c1ccc2c(c1)nc1n2CCCCC1 | inconclusive: 1.75% [signal inhibitor] | – |
| CCn1ccc(C(=O)Nc2ccc(S(=O)(=O)Nc3ccccc3OC)cc2)n1 | inconclusive: 4.4% [signal inhibitor] | – |
| COc1cc2c(cc1OC)CN(C(=O)CC1CC3CCC1C3)CC2 (configuration not stated) | – | inconclusive: 10 µM [signal inhibitor, partial curve] |
| CC(C)(N)CO[C@H]1C[C@H]2CC[C@@]1(C)C2(C)C | inactive: -1.14% [at 11.4 µM, scaled: untreated 0%, proteasome inhibitor 100%] | – |
| Cc1c(Cl)cccc1-n1ncc(C(=O)Nc2ccc(F)cc2F)c1C1CCN(C(=O)OC(C)(C)C)CC1 | inconclusive: 7.46% [signal inhibitor] | – |
| CC(=NCc1ccco1)c1c(O)n(C2CCCCC2)c(=O)[nH]c1=O | inactive | – |
| C/C=C/c1ccc(OCCCNCC(C)O)c(OC)c1 (configuration not stated) | inactive | – |

| Structure (SMILES) | IkBa stabilization activation | Potency |
| --- | --- | --- |
| COCCN1Cc2cccc(C(=O)Nc3ccc(Cl)cc3Cl)c2C1=O | inactive | – |
| CCN(CC)c1ccc(NC(=O)CN2C(=O)c3cccnc3Sc3ccccc32)c(C)c1 | inconclusive: 9.03% [signal inhibitor] | – |
| CC(=O)N1CCc2c(sc3c2c(=O)n(CCc2ccccc2)c(=O)n3Cc2cccc(C)c2)C1 | inconclusive: 2.04% [signal inhibitor] | – |
| Nc1[nH]nc2nc(N3CCOCC3)nc(-c3ccccc3)c12 | inconclusive: 0.63% [signal inhibitor] | – |
| COc1ccc2oc(-c3ccc(C)c(NC(=O)CSc4ccc(Cl)cc4)c3)nc2c1 | inconclusive: 3.94% [signal inhibitor] | – |
| CC(=O)N1c2ccc(S(=O)(=O)N3CCN(c4cccc(Cl)c4)CC3)cc2CC1C (configuration not stated) | inconclusive: -0.429% [signal inhibitor] | – |
| CCOc1cc(C2C(C(=O)OC)=C(C)NC3=C2C(=O)c2ccccc23)c(Br)cc1O (configuration not stated) | inactive | – |
| COc1ccc(CC(=O)Nc2cc(C)on2)cc1 | inactive | – |
| COc1cc(C(=O)NCCc2nc3ccccc3n2C)cc(OC)c1OC | inactive | – |
| COc1cccc(NC(=O)Cn2c(=O)n(CC(=O)NCCc3ccccc3)c(=O)c3sccc32)c1 | inconclusive: 6.51% [signal inhibitor] | – |
| Cc1ccc2nc(-c3ccco3)c(Nc3ccc4c(c3)OCCO4)n2c1 | inconclusive: 7.51% [signal inhibitor] | – |
| C=CCN(CC=C)S(=O)(=O)c1ncn[nH]1 | inactive | – |
| CCn1c(SCC(N)=O)nc2c(c1=O)C1(CCCC1)Cc1ccccc1-2 | inconclusive: -2.15% [signal inhibitor] | – |
| CCc1c(C)nc2nc(-c3ccccc3)nn2c1NCc1ccc(C)cc1 | inconclusive: 8.15% [signal inhibitor] | – |
| COc1cccc2[nH]c(C(=O)NCc3ccc4c(c3)CCN4C(=O)c3ccc(F)cc3)cc12 | inconclusive: -0.0761% [signal inhibitor] | – |
| CN(C)c1ccc(/C=N/n2ncc3ccccc32)cc1 | – | inconclusive: 25.1 µM [signal inhibitor, partial curve] |
| CCC(C)(C)n1nnnc1C(c1cccs1)N1CCN(c2nc3ccccc3s2)CC1 (configuration not stated) | inconclusive: 5.91% [signal inhibitor] | – |
| Clc1ccccc1-c1nnc2sc(C3COc4ccccc4O3)nn12 (configuration not stated) | inconclusive: -1.02% [signal inhibitor] | – |
| COc1ccc(CNC(=O)c2ccc(-c3nc(CS(=O)c4ccc(C)cc4)c(C)o3)cc2)cc1 (configuration not stated) | inconclusive: 0.204% [signal inhibitor] | – |
| Cc1ccc(C2NC(=O)c3c(sc4c3CCN(C)C4)N2)s1 (configuration not stated) | inactive | – |
| COc1ccc2c(c1)c(=O)c(C(=O)c1ccc(Cl)cc1)cn2CC(=O)Nc1ccc2c(c1)OCCO2 | – | inconclusive: 31.6 µM [rising, single point] |
